# Results: the supplement of paper PMC12217912
# The list shows a part of the results. The full chains were built here from the parent and the listed change. Inactive controls read about 0.05.
# B1: TEV protease; numbered along this chain (parent)
# chain: MGESLFKGPRDYNPISSSICHLTNESDGHTTSLYGIGFGPFIITNKHLFRRNNGTLVVQSLHGVFKVKDTTTLQQHLVDGRDMIIIRMPKDFPPFPQKLKFREPQREERICLVTTNFQTKSMSSMVSDTSCTFPSGDGIFWKHWIQTKDGQCGSPLVSTRDGFIVGIHSASNFTNTNNYFTSVPKNFMELLTNQEAQQWVSGWRLNADSVLWGGHKVFMVKPEEPFQPVKEATQL
# Variants of: B1
# Test: raw area under fraction-flipped curve 0-4 h after induction (AUC4h, not background-subtracted), DNA-recorder readout of cleavage of the substrate (dimensionless); higher = more cleavage of the substrate by the protease variant
# Conditions: temperature: 34 °C; time window: 0-4 h after rhamnose induction
# Protocol: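 In vivo DNA recorder in E. coli TOP10(DE3) ΔrhaA at 34 °C. Each TEVp single-site mutant (parent TEVp 0) is paired with a single-site variant of the 7-mer TEVs (canonical ENLYFQ|S). The substrate sits between flexible linkers in a Bxb1-sfGFP-TEVs-SsrA fusion, so cleavage stabilises Bxb1 and speeds flipping of a recombination array, read by NGS. The value is the raw area under the fraction-flipped curve over 0-4 h after rhamnose induction (AUC4h), with ≥20 reads per time point. It is not background-subtracted; inactive controls average about 0.047.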
# 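Further: Bxb1 expression induced with 0.2% (w/v) L-rhamnose at OD600 near 0.5, cultures sampled hourly, flipped fraction per protease–substrate barcode pair counted by paired-end Illumina sequencing.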
Variant,area with substrate ENLYAQS,area with substrate ENLYCQS,area with substrate ENLYDQS,area with substrate ENLYGQS,area with substrate ENLYHQS,area with substrate ENLYIQS,area with substrate ENLYMQS,area with substrate ENLYNQS,area with substrate ENLYPQS,area with substrate ENLYQQS,area with substrate ENLYRQS,area with substrate ENLYSQS,area with substrate ENLYTQS,area with substrate ENLYWQS,area with substrate ENLYEQS,area with substrate ENLYKQS,area with substrate ENLYVQS,area with substrate ENLYYQS,area with substrate ENLYLQS
MGESLFKGPRDYNPISSSICHLTNESDGHTTSLYGIGFGPFIITNKHLFRRNNGTLVVQSLHGVFKVKDTTTLQQHLVDGRDMIIIRMPKDFPPFPQKLKFREPQREEWICLVTTNFQTKSMSSMVSDTSCTFPSGDGIFWKHWIQTKDGQCGSPLVSTRDGFIVGIHSASNFTNTNNYFTSVPKNFMELLTNQEAQQWVSGWRLNADSVLWGGHKVFMVKPEEPFQPVKEATQL [R109W],0.0847,0.0883,0.0588,0.0654,0.0691,0.111,0.068,0.0685,0.076,0.0795,0.0582,0.0705,0.0915,0.0748,–,–,–,–,–
MGESLFKGPRDYNPISSSICHLTNESDGHTTSLYGIGFGPFIITNKHLFRRNNGTLVVQSLHGVFKVKDTTTLQQHLVDGRDMIIIRMPKDFPPFPQKLKFREPQREERICLVTTNFQTKSMSSMVSDTSCTFGSGDGIFWKHWIQTKDGQCGSPLVSTRDGFIVGIHSASNFTNTNNYFTSVPKNFMELLTNQEAQQWVSGWRLNADSVLWGGHKVFMVKPEEPFQPVKEATQL [P134G],0.0864,–,0.068,–,0.0608,0.0989,0.0744,0.057,0.0671,0.0563,–,0.0531,–,0.0736,0.0618,0.0637,0.0649,0.0742,–
MGESLFKGPRDYNPISSSICHLTNESDGHTTSLYGIGFGPFIITNKHLFRRNNGTLVVQSLHGVFKVKDTTTLQQHLVDGRDMIIIRMPKDFPPFPQKLKFREPQREERICLVTTNFQTKSMSSMVSDTSCTFPSGDGIFWKHWIQTKDGQCGSPLVSTRDGFIVGIHSASNFTNTNNYFTSVPKNFMELLTNQEAQQWVSGWRLNADSVLWGGHKVFMVKFEEPFQPVKEATQL [P222F],0.0752,–,0.0571,0.0537,0.0621,0.0855,–,0.0623,0.0661,0.0507,0.0707,–,0.0849,0.0592,0.0554,0.064,–,–,0.0562
MGESLFKGPRDYNPISSSICHLTNESDGHTTSLYGIGFGPFIITNKHLFRRNNGTLVVQSLHGVFKVKDTTTLQQHLVDGRDMIIIRMPKDFPPFPQKLKFREPQREERICLVTTNFQTKSMSSMVSDTSCTFPSGDGIFWKHWIQTKDGQCGSPLVSTRDGFIVGIHSASNFTNTNNYFTSVPKNFMELLTNQEADQWVSGWRLNADSVLWGGHKVFMVKPEEPFQPVKEATQL [Q197D],0.0383,0.0857,0.0661,0.0787,0.055,–,0.107,–,0.066,0.052,0.0548,0.0746,0.0811,0.0678,0.0632,0.0504,0.11,0.0557,–
MGESLFKGPRDYNPISSSICHLTNESDGHTTSLYGIGFGPFIITNKHLFRRNNGTLVVQSLHGVFKVKDTTTLQQHLVDGRDMIIIRMPKDFPPFPQKLKFREPQREERICLVTTNFQTKSMSSMVSDTSCTFPSGDGIFWKHWIQTKDGQCGSPLVSTRDGFIVGIHSASNFTNTNNYFTSVPKNFMELLTNQEAQQWVSGWRLNADSVLWGGHKVFMVKPEEPHQPVKEATQL [F226H],0.0687,–,0.0526,0.08,0.0672,0.127,0.0906,0.0679,0.0995,0.0571,0.0706,0.0804,0.0839,0.0886,0.0597,0.0344,0.111,0.0632,–
MGESLFKGPRDYNPISSSICHLTNESDGHTTSLYGIGFGPFIITNKHLFRRNNGTLVVQSLHGVFKVKDTTTLQQHLVDGRNMIIIRMPKDFPPFPQKLKFREPQREERICLVTTNFQTKSMSSMVSDTSCTFPSGDGIFWKHWIQTKDGQCGSPLVSTRDGFIVGIHSASNFTNTNNYFTSVPKNFMELLTNQEAQQWVSGWRLNADSVLWGGHKVFMVKPEEPFQPVKEATQL [D82N],0.0612,0.0616,0.0868,0.055,0.0587,0.103,0.0588,–,0.0605,0.0732,0.0815,0.0538,–,0.0538,0.0575,0.0202,0.0673,0.0587,–
MGESLFKGPRDYNPISSSICHLYNESDGHTTSLYGIGFGPFIITNKHLFRRNNGTLVVQSLHGVFKVKDTTTLQQHLVDGRDMIIIRMPKDFPPFPQKLKFREPQREERICLVTTNFQTKSMSSMVSDTSCTFPSGDGIFWKHWIQTKDGQCGSPLVSTRDGFIVGIHSASNFTNTNNYFTSVPKNFMELLTNQEAQQWVSGWRLNADSVLWGGHKVFMVKPEEPFQPVKEATQL [T23Y],0.0825,–,0.0635,–,0.0695,0.101,0.0691,0.0691,–,–,0.0832,–,0.079,–,0.0638,0.0441,0.0907,0.0595,–
MGESLFKGPRDYNPISSSICHLTNESDGHTTSLYGIGWGPFIITNKHLFRRNNGTLVVQSLHGVFKVKDTTTLQQHLVDGRDMIIIRMPKDFPPFPQKLKFREPQREERICLVTTNFQTKSMSSMVSDTSCTFPSGDGIFWKHWIQTKDGQCGSPLVSTRDGFIVGIHSASNFTNTNNYFTSVPKNFMELLTNQEAQQWVSGWRLNADSVLWGGHKVFMVKPEEPFQPVKEATQL [F38W],0.0911,–,0.0633,0.0642,0.0701,–,0.0899,0.0627,0.0753,0.0706,0.059,0.0901,0.0897,0.0868,0.0754,0.0697,0.127,–,0.0821
MGESLFKGPRDYNPDSSSICHLTNESDGHTTSLYGIGFGPFIITNKHLFRRNNGTLVVQSLHGVFKVKDTTTLQQHLVDGRDMIIIRMPKDFPPFPQKLKFREPQREERICLVTTNFQTKSMSSMVSDTSCTFPSGDGIFWKHWIQTKDGQCGSPLVSTRDGFIVGIHSASNFTNTNNYFTSVPKNFMELLTNQEAQQWVSGWRLNADSVLWGGHKVFMVKPEEPFQPVKEATQL [I15D],0.052,–,0.0569,0.0488,0.0528,0.0856,0.0643,0.0615,0.0696,0.0478,0.0581,0.0629,0.0598,0.06,0.0621,0.0553,0.077,0.0464,0.0601
